# Whole data set: some 81,000 sequences, median “one-hybrid fitness for binding parS DNA” near -0.17, cut for the highest 2% near 0.51. The list shows a part of the results.
# B1: Caulobacter ParB omega fusion; a variant is named by its letters at X, in order, B8GW30 (parent)
# chain: MESVVVGEPGMSEGRRGLGRGLSALLGEVDAAPAQAPGEQLGGSREAPIEILQRNPDQPRRTFREEDLEDLSNSIREKGVLQPILVRPSPDTAGEYQIVAGERAWRAAQRAGLKTVPIMVRELDDLAVLEIGIIENVQRADLNVLEEALSYKVLMEKFERTQENIAQTIGKSXSHVANXMRLLXLPDEVQSYLVSGELTAXHARAIAAAADPVALAKQIIEGGLSVRETEALARKAPNLSAGKSKGGRPPRVKDTDTQALESDLSSVLGLDVSIDHRGSTGTLTITYATLEQLDDLCNRLTRGI
# Variants of: B1
# Assay: one-hybrid fitness for binding parS DNA (scaled: cognate 1, non-cognate 0); higher = stronger binding
# Settings: with parS DNA site
# How it was run: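 The reporter was HIS3, with the binding site 19 bp from the promoter, in E. coli USO used for bacterial one-hybrid selection of Caulobacter ParB libraries with four specificity codons randomised. Growth was on M9 lacking histidine, with 0.1 mM IPTG and 5 mM 3-AT, for 48 hours at 37°C. Illumina sequencing covered plasmids before and after selection; three replicate libraries were pooled and variants with under 10 reads dropped. A fitness score is the log change in variant-to-wild-type read ratio, rescaled to the cognate and non-cognate references.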
row,Variant,one-hybrid fitness for binding parS DNA
1,PQQD,≤ 0.2
2,EGPR,≤ 0.2
3,ANAT,≤ 0.2
4,FSNE,≤ 0.2
5,GEWA,≤ 0.2
6,VVKA,≤ 0.2
7,GCKY,≤ 0.2
8,MEHR,≤ 0.2
9,HQQT,≤ 0.2
10,HATI,≤ 0.2
11,APLH,≤ 0.2
12,DDTE,≤ 0.2
13,ICLC,≤ 0.2
14,PQNS,≤ 0.2
15,TLTR,≤ 0.2
16,VTGT,≤ 0.2
17,ETTY,≤ 0.2
18,PCDV,≤ 0.2
19,TIEI,≤ 0.2
20,VCSG,≤ 0.2
21,RMKP,≤ 0.2
22,AVMA,≤ 0.2
23,ESTG,≤ 0.2
24,ETTM,≤ 0.2
25,RNND,≤ 0.2
26,EMSA,≤ 0.2

row,Variant,one-hybrid fitness for binding parS DNA
1,NTDQ,≤ 0.2
2,QTMS,≤ 0.2
3,HVSP,≤ 0.2
4,RRKR,≤ 0.2
5,NYIL,≤ 0.2
6,FTDY,≤ 0.2
7,SMWT,≤ 0.2
8,RKLN,0.351
9,HFAD,≤ 0.2
10,GCAL,≤ 0.2
11,RYRF,≤ 0.2
12,GEKY,≤ 0.2
13,RHAC,0.933
14,MVIT,≤ 0.2
15,MYAK,≤ 0.2
16,WLII,≤ 0.2
17,YMPL,≤ 0.2
18,PHIF,≤ 0.2
19,AVRY,≤ 0.2
20,SKMV,≤ 0.2
21,AYPY,≤ 0.2
22,NVAC,≤ 0.2
23,FHSF,≤ 0.2
24,TEMV,≤ 0.2
25,PGMS,≤ 0.2
26,QGVN,≤ 0.2

row,Variant,one-hybrid fitness for binding parS DNA
1,GQQF,≤ 0.2
2,SARM,≤ 0.2
3,HYRT,≤ 0.2
4,WGSL,≤ 0.2
5,AAQT,≤ 0.2
6,TGVS,≤ 0.2
7,YCFS,≤ 0.2
8,GLDN,≤ 0.2
9,AHFG,≤ 0.2
10,ESRH,≤ 0.2
11,DATE,≤ 0.2
12,YCSS,≤ 0.2
13,VILG,≤ 0.2
14,CEHT,≤ 0.2
15,RKQN,0.3
16,IRTT,≤ 0.2
17,QMRR,≤ 0.2
18,CKKT,≤ 0.2
19,AKPF,≤ 0.2
20,RYVW,0.209
21,ADNS,≤ 0.2
22,DPYT,≤ 0.2
23,KQPR,≤ 0.2
24,IISL,≤ 0.2
25,SGRA,≤ 0.2
26,IDEP,≤ 0.2

row,Variant,one-hybrid fitness for binding parS DNA
1,LFVD,≤ 0.2
2,MGRC,≤ 0.2
3,HGTG,≤ 0.2
4,PIAW,≤ 0.2
5,WVEC,0.307
6,CWLC,≤ 0.2
7,QESK,≤ 0.2
8,WVIY,≤ 0.2
9,NYCL,≤ 0.2
10,LSNL,≤ 0.2
11,QSHV,≤ 0.2
12,KLET,≤ 0.2
13,TTTD,≤ 0.2
14,ELVS,≤ 0.2
15,VMTS,≤ 0.2
16,GHKC,≤ 0.2
17,QHPV,≤ 0.2
18,TLQV,≤ 0.2
19,DRWR,≤ 0.2
20,FILC,≤ 0.2
21,QEAA,≤ 0.2
22,TYES,≤ 0.2
23,MSKC,≤ 0.2
24,AMWS,≤ 0.2
25,WTTG,≤ 0.2
26,RRIK,≤ 0.2

row,Variant,one-hybrid fitness for binding parS DNA
1,DARG,≤ 0.2
2,AMLS,≤ 0.2
3,QNYT,≤ 0.2
4,HAVA,≤ 0.2
5,ELAT,≤ 0.2
6,IARC,≤ 0.2
7,QEIC,≤ 0.2
8,AGGD,≤ 0.2
9,FTKI,≤ 0.2
10,PKPC,≤ 0.2
11,QGQY,≤ 0.2
12,SWTV,≤ 0.2
13,TRER,≤ 0.2
14,TRDW,≤ 0.2
15,TGVT,≤ 0.2
16,ADWR,≤ 0.2
17,DIAR,≤ 0.2
18,QTYP,≤ 0.2
19,RHSA,0.515
20,DQDG,≤ 0.2
21,IVDK,≤ 0.2
22,AYEV,≤ 0.2
23,EYSD,≤ 0.2
24,RQIT,0.647
25,LYGS,≤ 0.2
26,NQKT,≤ 0.2

row,Variant,one-hybrid fitness for binding parS DNA
1,YQER,≤ 0.2
2,TIAK,≤ 0.2
3,YMAG,≤ 0.2
4,NVSC,≤ 0.2
5,VVHC,≤ 0.2
6,CNYE,≤ 0.2
7,NPSS,≤ 0.2
8,TDYS,≤ 0.2
9,VRSP,≤ 0.2
10,YCTT,≤ 0.2
11,RSQG,0.995
12,QYTS,≤ 0.2
13,RTPK,≤ 0.2
14,CTPS,≤ 0.2
15,QSWK,≤ 0.2
16,RMET,0.731
17,ACKC,≤ 0.2
18,SMEL,≤ 0.2
19,HMSY,≤ 0.2
20,IPLK,≤ 0.2
21,LLRC,≤ 0.2
22,NRIH,0.325
23,KIIS,≤ 0.2
